# “And” between values parts separate entries of the source, which are not always exact repeats. Identical values can stand only once. The campaign covered roughly 270,000 compounds. About 620 (0.23%) were called active. This list was built around the results that the source calls inconclusive (neither active nor inactive); the mix of calls is not that of the screen. The call rests on the fitted dose curve; in most records, active means well fitted inhibition curve with a large enough effect in the polarisation, with a control signal flat (not every such curve was filed as active); inconclusive means small, poorly fitted or top-dose-only effect, or effect the other way, or a change in a side signal; inactive means no such curve, though single readings can be large or run the other way; the % refers to the polarisation. Potencies beside an inconclusive call are fits to weak or partial responses and may not hold up. A note “side channel” means that the fit belongs to a control or component signal, not to the main read-out.
# Target: Menin (Homo sapiens) (UniProt O00255)
# Assay: qHTS Assay for Inhibitors Targeting the Menin-MLL Interaction in MLL Related Leukemias: Competition With Texas Red Labeled MLL-derived Mutant Peptide; on FP activity change, negative = inhibition: % of control where 0% means no effect
# Conditions: fluorescence polarization; FP activity change, negative = inhibition: at 61.6 µM (top of the series)
# Potency means the concentration at half of the fitted maximal effect; tags describe the fitted curve by direction and shape or compound fluorescence and quenching.
# Sequence of UniProt O00255 (O00255 whole entry, looked up): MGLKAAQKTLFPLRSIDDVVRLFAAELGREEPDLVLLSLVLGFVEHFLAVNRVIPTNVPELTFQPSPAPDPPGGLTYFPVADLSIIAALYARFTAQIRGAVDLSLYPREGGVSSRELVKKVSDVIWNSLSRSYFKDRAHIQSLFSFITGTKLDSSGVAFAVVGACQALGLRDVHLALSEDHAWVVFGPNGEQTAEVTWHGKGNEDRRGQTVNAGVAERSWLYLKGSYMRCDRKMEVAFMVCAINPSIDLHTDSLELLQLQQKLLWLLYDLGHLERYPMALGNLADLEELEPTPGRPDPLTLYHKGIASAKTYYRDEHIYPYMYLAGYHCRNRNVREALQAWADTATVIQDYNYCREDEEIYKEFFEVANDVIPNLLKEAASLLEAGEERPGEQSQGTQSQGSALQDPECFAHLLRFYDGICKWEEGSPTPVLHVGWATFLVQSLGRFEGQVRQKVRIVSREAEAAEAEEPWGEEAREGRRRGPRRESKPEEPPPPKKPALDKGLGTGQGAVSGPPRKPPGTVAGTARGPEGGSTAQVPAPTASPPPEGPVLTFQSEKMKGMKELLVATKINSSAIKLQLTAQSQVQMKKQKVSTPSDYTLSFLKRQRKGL
SMILES,Potency,"FP activity change, negative = inhibition"
COC(=O)c1ccc(Nc2ccc3nonc3c2[N+](=O)[O-])cc1,"inconclusive: 35.5 µM [quencher, side channel, single point]",
Cc1ccc(OCCn2c(NC(=O)c3ccco3)nc3ccccc32)cc1,"inconclusive: 15.8 µM [quencher, side channel, partial curve]",
COc1ccccc1N1CCN(Cc2ccc(Br)o2)CC1,"inconclusive: 1.41 µM [inhibitor, full curve]",
COc1ccc(C(=O)Nc2cc(OC)cc(OC)c2)cc1,"inconclusive: 11.2 µM [quencher, side channel, partial curve]",
Cc1c(C(=O)N2CCCCCC2)nnn1-c1nonc1N,"inconclusive: 22.4 µM [inhibitor, single point]",
Cc1no[n+]([O-])c1COc1ccc(/C=C2\NC(=S)NC2=O)cc1,"inconclusive: 39.8 µM [inhibitor, single point]",
C#CCOCCOCCOCCNc1nc(N2CCN(C(=O)[C@H]([C@@H](C)CC)n3cc([C@@H](N)CO)nn3)CC2)nc(N2CCN(C(=O)[C@H]([C@@H](C)CC)n3cc([C@@H](N)Cc4ccc(O)cc4)nn3)CC2)n1,"inconclusive: 10 µM [fluorescent, side channel, partial curve]",
Cc1cc(C)cc(Oc2ncnc3c2ncn3Cc2c(Cl)cccc2Cl)c1,"inconclusive: 17.8 µM [fluorescent, side channel, partial curve]",
CC(C)c1ccc(/C=C/c2[nH]c(=O)[nH]c(=O)c2[N+](=O)[O-])cc1,"inconclusive: 28.2 µM [quencher, side channel, single point]",
CNCc1ccccc1Sc1ccc(OC)cc1,"inconclusive: 22.4 µM [fluorescent, side channel, single point]",
COC(=O)c1c(C)oc2ccc(NS(=O)(=O)c3cccs3)cc12,"inconclusive: 15.8 µM [quencher, side channel, single point]",
CC(C)n1nc(C(=O)Nc2nc3ccc(S(C)(=O)=O)cc3s2)c2ccccc2c1=O,,inactive: 19.6%
Cc1ccc(N(CC(=O)NCc2ccccc2)S(=O)(=O)c2c(C)noc2C)cc1,"inconclusive: 25.1 µM [fluorescent, side channel, single point]",
O=C(c1cc2ccccc2o1)N1CCN(C/C=C/c2ccccc2)CC1,"inconclusive: 15.8 µM [fluorescent, side channel, partial curve]",
CCc1nnc(NC(=O)CSc2nnc(Cc3cc(=O)[nH]c(=O)[nH]3)n2-c2cccc(OC)c2)s1,"inconclusive: 4.47 µM [fluorescent, side channel, single point]",
CCc1ccc(Nc2nnc(SCC(=O)Nc3sccc3C(N)=O)s2)cc1,"inconclusive: 10 µM [quencher, side channel, partial curve]",
N#CC1=C2SCN(c3ccc(F)cc3)CN2C(=O)CC1c1cccc(F)c1 (centres undefined),"inconclusive: 14.1 µM [quencher, side channel, partial curve]",
Cc1ccc(SCc2cc(=O)[nH]c(SCC(=O)Nc3cc(Cl)ccc3Cl)n2)cc1,"inconclusive: 28.2 µM [quencher, side channel, single point]",
Nc1nonc1-n1nnc(C(=O)N/N=C/c2cc(Br)ccc2O)c1CSC1=NCCS1,"inconclusive: 14.1 µM [quencher, side channel, partial curve]",
CC(Oc1ccccc1)C(=O)Nc1cccc(-c2nc3ccccc3[nH]2)c1 (centres undefined),"inconclusive: 31.6 µM [quencher, side channel, single point]",
Cc1[nH]n(-c2ccccc2)c(=O)c1/C=N/N1C(=O)c2cccc3cccc(c23)C1=O,"inconclusive: 35.5 µM [quencher, side channel, partial curve]",
CCOc1ccc(C2C3=C(Nc4nc(N)[nH]c(=O)c42)c2ccccc2C3=O)cc1 (centres undefined),"inconclusive: 14.1 µM [quencher, side channel, partial curve]",
COc1ccccc1C(CNc1ncccc1[N+](=O)[O-])N(C)C (centres undefined),"inconclusive: 3.16 µM [inhibitor, partial curve]",
Cc1ccc2c(c1)CCCN2C(=O)NC1CCCCC1,"inconclusive: 10 µM [fluorescent, side channel, partial curve]",
Cc1nc2ccccc2c(=O)n1/N=C/c1cc(Br)ccc1O,"inconclusive: 28.2 µM [quencher, side channel, single point]",
Cc1nc2ccc(C(=O)N3c4ccccc4CC3C)cc2s1 (centres undefined),"inconclusive: 35.5 µM [inhibitor, single point]",
CCn1c(CC(=O)Nc2ccccc2)n[nH]c1=S,"inconclusive: 8.91 µM [inhibitor, full curve, poor fit]",

SMILES,Potency,"FP activity change, negative = inhibition"
COc1ccc(CN2CCC(=O)c3ccccc3S2(=O)=O)cc1,,inactive: 4.64%
O=C(O)c1ccccc1N=Nc1c(O)[nH]c2ccc([N+](=O)[O-])cc12,"inconclusive: 15.8 µM [quencher, side channel, partial curve]",
COC(=O)[C@@H]1CC[C@H](C)[C@@H](c2ccc(C)cc2)N1C(=O)c1ccc(/C=N/OCC[C@@H]2C=C[C@H](OC(C)=O)[C@@H](COC(C)=O)O2)cc1,"inconclusive: 0.708 µM [fluorescent, side channel, partial curve, poor fit]",
c1ccc(-n2c(SCc3ccncc3)nnc2-c2ccco2)cc1,"inconclusive: 2.51 µM [inhibitor, partial curve]",
Cc1ccc(C23CC4CC(CC(C(=O)N(C)C)(C4)C2)C3)cc1,"inconclusive: 25.1 µM [inhibitor, partial curve]",
CCc1ccc(C(=O)COC(=O)c2cc([N+](=O)[O-])ccc2NCCO)cc1,"inconclusive: 28.2 µM [quencher, side channel, single point]",
CC(=O)Nc1ccc(NC2=Nc3ccccc3N3C2=Nc2c(c(C)nn2-c2ccccc2)C3c2ccccc2)cc1 (centres undefined),"inconclusive: 2.51 µM [inhibitor, partial curve, poor fit]",
CC(C)NC(=S)N/N=C1\CCCCC1C1CCCCC1 (centres undefined),"inconclusive: 17.8 µM [fluorescent, side channel, partial curve]",
CCOC(=O)c1[nH]c2cc(OC)c(OC)cc2c1NC(=O)CN1CCN(c2ccc(OC)cc2)C(C)C1 (centres undefined),"inconclusive: 17.8 µM [quencher, side channel, single point]",
S=C(Nc1ccccc1)Nc1nccs1,"inconclusive: 31.6 µM [quencher, side channel, single point]",
O=C(NC1C2CCCC1CN(C1CC1)C2)c1ccc(Cl)cc1 (centres undefined),,inactive: -15.2%
NS(=O)(=O)c1ccc(-c2ccc(C=C3C(=O)c4ccccc4C3=O)o2)cc1,"inconclusive: 25.1 µM [quencher, side channel, partial curve]",
CCCCC(c1nnnn1Cc1ccco1)N1CCN(C(=O)c2ccco2)CC1 (centres undefined),"inconclusive: 39.8 µM [inhibitor, partial curve]",
O=C(CCC(=O)Nc1cc(C(F)(F)F)ccc1Cl)N/N=C\c1cc([N+](=O)[O-])ccc1O,"inconclusive: 15.8 µM [quencher, side channel, partial curve]",
COc1ccccc1C(C(=O)NC1CCCCC1)N(C(=O)c1csnn1)C1CC1 (centres undefined),"inconclusive: 11.2 µM [inhibitor, partial curve, poor fit]",
COc1ccc(/C=C2\SC(=O)N(CCC(=O)Nc3ccccc3)C2=O)cc1OC,"inconclusive: 39.8 µM [fluorescent, side channel, single point]",
CCOC(=O)C1C(=O)C=C(c2ccc(C)cc2)CC1c1ccccc1 (centres undefined),"inconclusive: 12.6 µM [fluorescent, side channel, partial curve]",
COc1ccc(/C=C(\C#N)c2c[nH]c3ccccc23)cc1,"inconclusive: 11.2 µM [quencher, side channel, partial curve]",
O=Cc1cc(N=Nc2cccc(C(=O)O)c2)ccc1O,"inconclusive: 5.62 µM [quencher, side channel, partial curve]",
O=C(Nc1ccc2c(c1)OCCO2)c1cccc2nc3ccccc3nc12,"inconclusive: 5.01 µM [quencher, side channel, partial curve]",
CC(=O)NN=C1CCC(c2ccccc2)CC1 (centres undefined),,inactive: -1.09%
CC(=O)c1ccc(NC(=O)c2ccc(NC(=O)CCS(=O)(=O)c3cccs3)cc2)cc1,"inconclusive: 3.98 µM [quencher, side channel, full curve, poor fit]",
COC(=O)C1(C)CN(S(=O)(=O)c2ccc(C)cc2)c2cc(OC)ccc2C1=O (centres undefined),,inactive: 3.77%
COc1ccc(-c2cc(C(=O)OC3CCOC3=O)c3ccccc3n2)cc1OC (centres undefined),"inconclusive: 39.8 µM [quencher, side channel, single point]",
Cc1cc2ccccc2n1CCNC(=O)c1ccc(S(=O)(=O)N2CCCCC2)cc1,,inactive: 11.4%
CCCCCCCCCCC[C@@H](C[C@@H]1OC(=O)[C@H]1CCCCCC)OC(=O)[C@H](CC(C)C)NC=O,"inconclusive: 2 µM [fluorescent, side channel, full curve, poor fit] and inconclusive: 2 µM [inhibitor, full curve]",
CCc1ccc(NC(=O)CNC(=O)Cn2ccc3ccccc3c2=O)cc1,"inconclusive: 35.5 µM [fluorescent, side channel, single point]",
